Measurements from PubChem BioAssay AID445 (National Center for Advancing Translational Sciences (NCATS), 2006).
In all, about 110,000 compounds went through this assay and about 40 (0.04%) were called active. Inconclusive results, whose numbers are uncertain, are shown with a selection of clear calls. The call rests on the fitted dose curve; in most records, active means well fitted curve in the direction sought with a large enough effect in the signal ratio (not every such curve was filed as active); inconclusive means small, poorly fitted or top-dose-only effect, or a change in a side signal; inactive means flat fitted curve, though single readings scatter; the % refers to the signal ratio. Potencies of inconclusive entries are doubtful fits and often do not repeat.

Assay: IkB Signaling;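 on IkBa stabilization activation: 0% = basal untreated cells and 100% = reference inhibitor full response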
Settings: ABC-DLBCL IkBa-CBG/CBR dual luciferase ratio (green luciferase fused to IkBa over red control in OCI-Ly3 lymphoma cells), 4 h; IkBa stabilization activation: at 57.1 µM (top of the series), scaled: untreated 0%, proteasome inhibitor 100% unless noted
Text: NIH Molecular Libraries Screening Centers Network [MLSCN]
NIH Chemical Genomics Center [NCGC]
Nuclear factor kappa-B (NF-kappa-B) plays an important role in normal B cell development and survival. Diffuse large B cell lymphoma (DLBCL) is the most commonly observed type of non-Hodgkin's lymphoma. Gene expression analysis has identified an activated B cell-like subtype of DLBCL (ABC-DLBCL) which expresses known NF-kappa-B target genes. […] However, targets upstream of IKK have been largely unexplored and so nodes upstream of IKK in the NF-kappa-B pathway remain untested due to the lack of chemical probes.
A cell-sensor assay for I-kappa-B-alpha stabilization was developed with NIH investigator Dr. R. Eric Davis in Dr. Louis M. Staudt's laboratory. The assay uses green (CBG68) and red (CBR) emitting beetle luciferases [Chroma-Glo(TM) developed by Promega Corp.] where the green luciferase is fused to I-kappa-B-alpha and the red luciferase is present in its native state. Both luciferase genes are stably present in the OCI-Ly3 human ABC DLBCL cell line, but their expression is under the control of tetracycline-inducible promoters. Following the addition of doxycycline to induce expression of the luciferases, the green luminescence in control cultures rises only slowly because the CBG fusion partner I-kappa-B-alpha is targeted by IKK activity for rapid degradation. In contrast, green luminescence rises rapidly in the presence of proteasome inhibitors or IKK inhibitors. The rise in red luminescence of CBR is not affected by proteasome or IKK inhibitors, and serves as normalization for cell number and nonspecific effects. Compounds were screened as a concentration-titration series that ranged from 57 uM to 0.7 nM.
NCGC Assay Protocol Summary:
Cells were seeded in 1536-well plates at 5000 cells/3ul in IMDM medium containing 0.5% FBS, w/o phenol red, L-glutamine, 25 mM HEPES, 3 mg/ml sodium bicarbonate. After centrifugation for 1 min. at 1000 rpm, 23 nl of compounds or DMSO were delivered to each well using a pin tool. Then 1ul 80ng/ml doxycycline was dispensed into white solid 1536-well plates and the plates were incubated at 37C/5% C02 in a cell incubator for 4 hrs. Then 4 ul Chroma-Glo luminescent substrate mix (Promega) was added to each well. The plate was incubated at R.T. for 10-15 min. The plates were measured on a ViewLux plate reader for green luminescence (540/20 nm filter) and red luminescence (618/8 nm filter). The green and red luminescent signals were corrected for red and green luminescence filter overlap using previously determined filter calibration constants (determined using the procedure outlined in the Promega Technical Manual). The %Activity was determined from the ratio of corrected green/red luminescent values. Green luminescent and ratio %Activity was determined by normalizing to the difference in signal between basal cells (0% Activity) and cells incubated with 10 uM of the proteasome inhibitor MG-132 (100% Activity). Red luminescent %Activity was normalized to the difference between red luminesence in basal cells (0%Activity) and zero luminescence (-100% Activity).
Concentration-response curves were fitted to the signals arising from the green luminescence (I-kappa-B-alpha-luciferase fusion; IkB-luc) and the red luminescence (unfused luciferase; luc) as well as the calculated ratio. The concentration-effect curves were then classified based on curve quality (r2), response magnitude and degree of measured activity. Compounds were then categorized based on their concentration-response curves for all three datasets (Ikb-luc, luc and ratio).
Keywords: IKK, I-kappa-B, IkB, IkBa, cytotoxicity, luminescence, MLSMR, MLSCN, NIH Roadmap, qHTS, NCGC
Potency means the concentration at half of the fitted maximal effect.

Row | Structure (SMILES) | IkBa stabilization activation | Potency
1 | COc1cccc(C(=O)NCC(c2cccnc2)N2CCN(c3ccccc3OC)CC2)c1 (stereo not given) | inconclusive: 14.6% [signal inhibitor] | –
2 | Cc1onc(-c2c(F)cccc2Cl)c1C(=O)Nc1ccc(OC(C)C)cc1 | inconclusive: 7.43% [signal inhibitor] | –
3 | O=C1CCCc2cc(S(=O)(=O)NCC3CCC(C(=O)NCc4ccccc4Cl)CC3)ccc2N1 (stereo not given) | inconclusive: 5.15% [signal inhibitor] | –
4 | Cc1cccc(NC(=O)Nc2ccc(Br)cc2)n1 | inactive: 7.44% | –
5 | COc1ccc(CCNC(=O)c2cc3c(s2)-c2ccccc2OC3)cc1OC | inconclusive: 2.88% [signal inhibitor] | –
6 | Cc1ccc(-n2nc3c(N4CCC(C(=O)NC(C)c5ccccc5)CC4)nnc(C)c3c2C)cc1 (stereo not given) | inconclusive: 0.685% [signal inhibitor] | –
7 | O=C(Cn1ccc2ccccc2c1=O)NCCC(=O)Nc1ccc(F)cc1F | inconclusive: -1.51% [signal inhibitor] | –
8 | CCOC(=O)c1[nH]c2ccc(OC)cc2c1NC(=O)c1nonc1C | inactive: 3.85% | –
9 | CCOC(=O)c1cccc(NC(=O)c2cc(S(=O)(=O)N3CCCC(C)C3)cn2C)c1 (stereo not given) | inconclusive: 1.86% [signal inhibitor] | –
10 | CC1=C(C(N)=O)C(c2ccc(C)cc2)n2nc(SCc3ccccc3F)nc2N1 (stereo not given) | inconclusive: -3.01% [signal inhibitor] | –
11 | CC(=O)Nc1ccccc1-c1nc2ccccc2n(CC(=O)c2ccc(Br)cc2)c1=O | inactive: 3.36% | –
12 | Cc1ccc2cc(C#N)c(N3CCCN(C(=O)C4CCCO4)CC3)nc2c1C (stereo not given) | inconclusive: 7.79% [signal inhibitor] | –
13 | CCOC(=O)C1CCCN(C(=O)Cn2ncc3c(C)n(Cc4ccccc4F)c(C)c3c2=O)C1 (stereo not given) | inconclusive: 0.559% [signal inhibitor] | –
14 | COc1cccc(CNC(=O)CSc2nnc(C)c3c(C)n(-c4ccccc4)nc23)c1OC | inconclusive: 2.14% [signal inhibitor] | –
15 | Cc1ccc(CC(=O)N2CCC(c3nc4c(nnn4Cc4ccccc4)c(=O)[nH]3)CC2)cc1 | inactive: -0.0271% | –
16 | Cc1cc(C)cc(NC2=C(c3ccccc3)C(=O)c3ccccc32)c1 | inconclusive: 0.71% [signal inhibitor] | –
17 | Nc1nc(N)nc(CC(=O)O)n1 | inactive: 1.29% [at 11.4 µM, scaled: untreated 0%, proteasome inhibitor 100%] | –
18 | O=C(CCCNS(=O)(=O)c1cccs1)N1CCN(c2cccc(Cl)c2)CC1 | inconclusive: 12.8% [signal inhibitor] | –
19 | COc1cccc(-n2cc(C(=O)Nc3cc(OC)c(OC)c(OC)c3)c3ccccc3c2=O)c1 | inactive: 0.97% | –
20 | COc1cc(-c2nnc(-c3ccc(S(=O)(=O)c4ccccc4)cc3)o2)cc(OC)c1OC | inactive: 0.374% | –
21 | CC[C@@H](C)[C@@H](C(=O)Nc1ccc(C)cc1)N1Cc2ccccc2C1=O | inconclusive: 3.48% [signal inhibitor] | –
22 | CCCn1c(=O)c2c(nc3n2CCN3c2ccc(C)cc2)n(C)c1=O | inconclusive: 0.912% [signal inhibitor] | –

Row | Structure (SMILES) | IkBa stabilization activation | Potency
23 | Cc1ccc(CN(C(=O)COc2ccc(Cl)cc2C)C2CCS(=O)(=O)C2)o1 (stereo not given) | inconclusive: 14.2% [signal inhibitor] | –
24 | CCOC(=O)c1c(NC(=O)c2cc(CC(C)C)on2)sc(C(C)=O)c1C | inactive: -2.05% | –
25 | Cc1ccc(NC(=O)c2cc3c(=O)n(Cc4ccco4)ccc3nc2C)cc1C | inconclusive: 0.562% [signal inhibitor] | –
26 | Cn1c(=O)oc2cc(S(=O)(=O)NCCC(=O)NCCc3ccc(Cl)cc3)ccc21 | inconclusive: 5.12% [signal inhibitor] | –
27 | c1ccc(-c2cccc(N3CC4(CCNCC4)C3)c2)cc1 | inactive: -4.52% [at 11.4 µM, scaled: untreated 0%, proteasome inhibitor 100%] | –
28 | Cc1cc(NCCCN2CCOCC2)n2ncc(-c3ccc(Cl)cc3)c2n1 | inactive: 1.86% | –
29 | CSc1ccc(C2c3c(oc4cc(C)cc(C)c4c3=O)C(=O)N2CCO)cc1 (stereo not given) | inconclusive: 3.29% [signal inhibitor] | –
30 | Cc1nc2sc(C(=O)N(C)c3ccccc3)c(NC(=O)c3ccccc3Cl)c2c(C)c1C | inconclusive: 1.6% [signal inhibitor] | –
31 | COc1ccc(C2C(C(=O)Nc3ccccc3OC)=C(C)Nc3c(C(=O)Nc4ccccc4)cnn32)c(OC)c1 (stereo not given) | inconclusive: -2.95% [signal inhibitor] | –
32 | Cc1ccc(NC(=O)c2c(C)oc3ccc(O)c(CN4CCOCC4)c23)c(C)c1 | inconclusive: 0.987% [signal inhibitor] | –
33 | COc1ccc(CCNC(=O)CNCC2CCCO2)cc1OC (stereo not given) | inactive: -0.791% | –
34 | CCN(CC)Cc1c(NC(=O)c2ccc(OC)cc2)sc2c1CCCC2 | inconclusive: 13.4% [signal inhibitor] | –
35 | Cc1ccc(C)c(-c2nnc(NC(=O)c3ccc4c(c3)OCCO4)o2)c1 | inconclusive: 9.09% [signal activator] | –
36 | CCOC(=O)C1CCN(C(=O)CSCc2nc(-c3ccc(OCC)cc3)oc2C)CC1 | inconclusive: 6.06% [signal inhibitor] | –
37 | Cc1nc2sc(-c3ccccc3)cc2c(=O)n1-n1cccc1 | inactive: -2.65% | –
38 | O=C(CN1CCN(c2ccccc2)CC1)Nc1nnc(-c2ccccc2)s1 | inconclusive: 3.42% [signal inhibitor] | –
39 | Cc1ccc(NC(=O)CN2C(=O)CCc3cc(S(=O)(=O)N4CCCCC4)ccc32)cc1C | inconclusive: 3.26% [signal inhibitor] | –
40 | Cc1cc(C)cc(-n2c(C)nc3cc(C(=O)NCc4ccccc4Cl)ccc32)c1 | inconclusive: 2.03% [signal inhibitor] | –
41 | COc1cccc(C(=O)Nc2ccc(-n3nncc3-c3ccccc3)cc2)c1 | inconclusive: 4.72% [signal inhibitor] | –
42 | COc1ccc(-c2nsc3c(N4CCCC4)ncnc23)cc1 | inactive: -0.491% | –
43 | O=S(=O)(Nc1cccc2cccnc12)c1ccc(S(=O)(=O)N2CCCC2)cc1 | – | inconclusive: 10 µM [rising, partial curve]
44 | CCOC(=O)c1c(NC(=O)COC)sc(C(C)=O)c1C | inactive: -0.237% | –

Row | Structure (SMILES) | IkBa stabilization activation | Potency
45 | CN(C)c1ccc(-c2nc(NC3CCNCC3)c3ccccc3n2)cc1 | inactive: 0.374% [at 11.4 µM, scaled: untreated 0%, proteasome inhibitor 100%] | –
46 | Cn1c(C(=O)N2CCCC(C(=O)NCc3ccc4c(c3)OCO4)C2)cc2sccc21 (stereo not given) | inconclusive: 2.34% [signal inhibitor] | –
47 | Cc1ccc2nc(NC(=O)CN(C)S(=O)(=O)c3ccc(Br)s3)sc2c1 | inconclusive: -3.12% [signal inhibitor] | –
48 | Cc1ccc2[nH]c(C(=O)Nc3ccccc3)cc2c1 | – | inconclusive: 31.6 µM [signal inhibitor, partial curve]
49 | CC(CN1CCOCC1)OC(=O)c1ccc(Br)cc1 (stereo not given) | inconclusive: 4.71% [signal inhibitor] | –
50 | COc1cc2cc(C(c3nnnn3C(C)(C)C)N3CCc4ccccc4C3)c(=O)[nH]c2cc1OC (stereo not given) | – | inconclusive: 31.6 µM [rising, partial curve]
51 | COc1ccc(-c2[nH]c(-c3ccccc3)nc2SCC(=O)Nc2ccc3c(c2)OCCO3)cc1 | inconclusive: 2.13% [signal inhibitor] | –
52 | CC(C)c1ccc2c(c1)CC[C@@H]1[C@@](C)(CN)CCC[C@@]21C | inconclusive: 5.56% [signal inhibitor] [at 11.4 µM, scaled: untreated 0%, proteasome inhibitor 100%] | –
53 | CCc1ccc(-c2nc(CN3CCCC(C(=O)NCc4ccc(C)cc4)C3)c(C)o2)cc1 (stereo not given) | inconclusive: 0.756% [signal inhibitor] | –
54 | N#Cc1ccccc1-c1ccc2ncnc(NCc3ccccc3)c2c1 | inactive: 4.52% [at 11.4 µM, scaled: untreated 0%, proteasome inhibitor 100%] | –
55 | COc1ccc(-c2cc3nc(C)c(CCC(=O)Nc4cccc(C(F)(F)F)c4)c(C)n3n2)c(OC)c1 | – | inconclusive: 3.16 µM [signal inhibitor, partial curve]
56 | CCn1cc2nc(SCC(=O)Nc3ccccc3F)n(Cc3ccc(C)cc3)c(=O)c2n1 | inconclusive: 2.04% [signal inhibitor] | –
57 | Cc1ccc(CNC(=O)Nc2cn(CC(C)C)c(=O)c3ccccc23)cc1 | inconclusive: 1.41% [signal inhibitor] | –
58 | C=CCn1c(SCC(=O)NCc2ccc3c(c2)OCO3)nnc1C1COc2ccccc2O1 (stereo not given) | inactive: 1.16% | –
59 | CN(C(=O)Cn1cc(S(=O)(=O)N2CCN(c3ccccc3F)CC2)c2ccccc2c1=O)c1ccc(Cl)cc1 | inconclusive: 2.74% [signal inhibitor] | –
60 | COc1cc(-c2nnc(SCC(=O)N(Cc3ccccc3)C(C)(C)C)o2)cc(OC)c1OC | inconclusive: 4.05% [signal inhibitor] | –
61 | Cc1ccc(C(=O)Nc2ccccc2C(=O)O)cc1S(=O)(=O)N1CCCCCC1 | – | inconclusive: 20 µM [signal inhibitor, partial curve]
62 | O=C(Nc1sc2c(c1C(=O)Nc1ccc(Cl)cc1)CCCC2)c1cccs1 | – | inconclusive: 7.94 µM [signal inhibitor, partial curve]
63 | CC(=O)c1ccc(NC(=O)c2cc(-c3ccc4c(c3)OCO4)on2)cc1 | inactive: 4.15% | –
64 | Cc1ccccc1-c1nc(CS(=O)(=O)CC(=O)NCc2ccc3c(c2)OCO3)c(C)o1 | inconclusive: 13.1% [signal inhibitor] | –
65 | CCc1ccc2oc(-c3cccc(NC(=O)c4cc5ccccc5o4)c3)nc2c1 | – | inconclusive: 20 µM [signal inhibitor, partial curve]
